Results as given in ChEMBL document CHEMBL4888484, “Replenishing the malaria drug discovery pipeline: Screening and hit evaluation of the MMV Hit Generation Library 1 (HGL1) against asexual blood stage Plasmodium falciparum ,using a nano luciferase reporter read-out” (2022).
In all, about 150,000 compounds went through this assay and about 540 (0.36%) showed an effect of 50% or more. The list shows a part of the results.

test system: Plasmodium falciparum; experiment: Primary screen in NF54 nanoGlo assay, in single point, at 2uM, 72h; a lower Z score goes with more inhibition; assay type: functional, Erythrocyte; conditions: timepoint 72 hour

Row | Compound | % Inhibition [%] | Z score
1 | Cc1cc2c(N[C@H]3C[C@H](c4nnc(CN(C)C)n4C)C3)ncnc2s1 | -3 | 0.64
2 | CN=C(NCCc1csc(C)n1)N1CCN(c2ccccn2)CC1 | -4 | 0.49
3 | CCCC[C@H](NC(=O)Nc1ccc(F)cc1C)C(N)=O | 9 | -0.86
4 | Cn1cc(NS(=O)(=O)N2CCCCCC2)c(C(N)=O)n1 | 0 | -0.03
5 | COCCN(Cc1cncs1)C(=O)[C@H]1CCCN(C(C)=O)C1 | -4 | 0.41
6 | O=C1N[C@@](Cc2ccc(F)cc2)(C2CCN(Cc3ccc(F)c(F)c3)CC2)C(=O)N1C1CCCC1 | -1 | 0.16
7 | CC(=O)Nc1c(-c2ccccn2)nsc1C(=O)NCCC1=CCCCC1 | -9 | 1.47
8 | CCC(C(=O)NOCC(C)NC(=O)OC(C)(C)C)c1cccc(C(F)(F)F)c1 (stereo unspecified) | 4 | -0.61
9 | Cc1ccc(F)c(NC(=O)[C@H]2CCCN(CC(C)C)C2)c1 | 3 | -0.65
10 | CS(=O)(=O)C1CC2CCC(C1)N2C(=O)c1cccc(Oc2ccc(F)cc2)c1 (stereo unspecified) | -15 | 1.86
11 | COc1cccc(-n2c(=O)n(CC(C)C)c(=O)c3c2ncn3Cc2cccc(C)c2)c1 | 5 | -0.64
12 | CC(C)(C)c1cc(NC(=O)c2cc(O)nc3ccccc23)n([C@H]2CCS(=O)(=O)C2)n1 | -6 | 0.87
13 | Cc1cccc(-n2ncc(C(=O)N3CCc4nnc(N)cc4C3)n2)c1 | -6 | 0.63
14 | CCCCOc1ccc(-c2cc3c(N4CCN(C(=O)c5ccco5)CC4)nccn3n2)cc1 | -10 | 1.99
15 | Brc1cccc(-c2nnc3cc(-c4ccccc4)c4cc(Br)ccc4n23)c1 | -4 | 0.45
16 | CCS(=O)(=O)NC[C@H](C)NCCc1nc(C2CC2)no1 | 1 | -0.25
17 | CC(=O)c1cc(CN2CCOC[C@@H]2CC(=O)Nc2cccc(F)c2C)n(C)c1 | -5 | 0.71
18 | Cc1noc(C(C)C)c1NC(=O)[C@H]1CCn2c(cnc2C)C1 | -2 | 0.3
19 | CN1CC[C@H](NCc2ccccn2)C1=O | -3 | 0.48
20 | Cc1cc2c(cc1S(=O)(=O)N1CCC[C@H](C(=O)N(C)C3CCCCC3)C1)OCC(=O)N2 | -11 | 1.31
21 | CCCN(CC1CC1)C[C@H](O)COc1ccccc1C(C)C | 5 | -0.86

Row | Compound | % Inhibition [%] | Z score
22 | CCc1nc(CC(=O)NCc2ccccc2)sc1C | -5 | 0.83
23 | Cc1c(F)ccc(Cl)c1NC(=O)c1coc2c1C(=O)NCCC2 | 10 | -1.29
24 | Cc1nc(CNC(=O)c2cccc(-c3cn[nH]c3)c2)cs1 | -15 | 2.35
25 | COc1ccccc1-c1noc(CS(=O)(=O)C[C@H]2CCCO2)n1 | -2 | 0.28
26 | C[C@@H](c1nccs1)N1CCN(C(=O)c2cc3ccccc3c(=O)[nH]2)CC1 | -4 | 0.48
27 | O=C(NCc1cccnc1)c1cc2n(n1)CCN(Cc1ccccc1)C2=O | 1 | -0.1
28 | CC[C@@H](CC#N)OC(=O)c1cncc(F)c1 | -9 | 1.26
29 | COc1ccc([C@@H]2Cn3cnc(-c4nc(-c5ccc(OC)cc5OC)no4)c3CO2)cc1 | -4 | 0.33
30 | COc1ccc(S(=O)(=O)N2C3CCC2CC(OC)C3)cc1Cl (stereo unspecified) | 3 | -0.47
31 | COC[C@H](NCC1(O)CCC(C)CC1)c1ccco1 (stereo partly specified) | -18 | 1.8
32 | Cc1cscc1NC(=O)NCc1cnn(CCF)c1 | -5 | 0.85
33 | Cn1cc(S(=O)(=O)Nc2ccc(CC(=O)N3CCOCC3)cc2)cn1 | -3 | 0.35
34 | CN1CCCC[C@@H]1CN1CCN(C(=O)C2(C)COC(C)(C)OC2)CC1 | -2 | 0.24
35 | CCOCCC(=O)Nc1ccc(-c2ccccn2)cn1 | -17 | 1.39
36 | Nc1nc2c(s1)[C@@H](c1cccc(OCc3ccc(F)cc3)c1)CC(=O)N2 | -10 | 0.97
37 | CCOc1ccc(NC(=O)c2csc3c2CCCC3)cc1S(=O)(=O)N1CCCCC1 | -10 | 1.31
38 | NC(=O)CC1CCN(S(=O)(=O)CC2CCC(C3CC3)O2)CC1 (stereo unspecified) | 0 | -0.03
39 | CC(C)N1CCC2(CC1)N=C(c1ccc3c(c1)OCO3)C[C@@H](c1cc(Cl)ccc1O)N2 | 37 | -7.51
40 | CN(C)c1ccc(C(=O)N[C@@]2(C)CCS(=O)(=O)C2)cc1 | 33 | -4.2
41 | N#CC1(C(=O)N2CCc3ccccc3C2)CCCCC1 | -4 | 0.39
42 | CCn1ncc(Cl)c1C(=O)Nc1ccncc1 | -12 | 1.58

Row | Compound | % Inhibition [%] | Z score
43 | CCOc1ccc(-c2nsc(NC(=O)c3ccco3)n2)cc1OC | 9 | -1.42
44 | COc1ccc(NC(=O)[C@@H]2COCCN2CC2CCC2)c(C)n1 | -5 | 0.7
45 | Cc1occc1C(=O)N1CC2OCCN(Cc3ccccc3)C2C1 (stereo unspecified) | -4 | 0.4
46 | C[C@H]1CN(C(=O)C2=CCCC2)CCC1(F)F | -17 | 1.71
47 | CCn1nc(C(=O)O)c2c1CC[C@H](NCc1oc3ccccc3c1C)C2 | 1 | -0.13
48 | Cc1ccc(C(=O)Oc2ccc(N(C(=O)c3ccc(C)cc3)S(=O)(=O)c3ccccc3)cc2)cc1 | -20 | 2.62
49 | COc1ccc(CCNc2nc(-c3ccc(OC)cc3F)c3c(N)n(-c4ccc(Cl)cc4)nc3n2)cc1 | 45 | -3.7
50 | CCNC(=O)N1CCN(c2nc3cc(Cl)ccc3c3nnc(-c4cccc(C)c4)n23)CC1 | -6 | 0.92
51 | Cn1cc([C@@H](NC(=O)OCCCF)C2(CO)CCC2)cn1 | -2 | 0.37
52 | Cc1ccc(-c2nc(-c3ccc(-n4cccn4)nc3)no2)cc1 | -24 | 2.53
53 | C[C@H]1COCCN1C(=O)c1cc(S(=O)(=O)C2CCCC2)ccc1F | 34 | -3.82
54 | O=C(Cn1c(-c2cccs2)cc2cc(F)ccc21)NCc1ccc(F)cc1 | 10 | -1.5
55 | N#Cc1nc(C2CC2)oc1N1CCN(C(=O)[C@H]2CCOC2)CC1 | -8 | 1.02
56 | CN1CCC[C@H](CCNC(=O)c2cnnn2-c2ccccc2)C1 | 0 | 0.04
57 | O=C(N[C@H]1CCOC[C@@H]1OCc1ccccc1)c1ccncc1 | 1 | -0.18
58 | Cc1ccc(C(=O)N(CCCN2CCCC2=O)C2CCOCC2)cn1 | -6 | 0.76
59 | O=C(N[C@H](c1cncc(Br)c1)C1CC1)c1ccncc1 | 0 | -0.04
60 | C[C@H]1CN(C(=O)Cn2cnc3c(c2=O)COCC3)CC(C)(C)O1 | 0 | 0.09
61 | O=C(O)Cn1nc(Cc2cccc(Cl)c2)nc1-c1ccc(CO)cc1 | -14 | 1.43
62 | Clc1ccc(C2(c3nnc(-c4ccccc4)o3)CCOCC2)cc1 | -6 | 1.11
63 | O=C(Nc1ccccc1CCc1ccccn1)N1CCOC[C@@H]1CO | 4 | -0.55

Row | Compound | % Inhibition [%] | Z score
64 | CN1CCN(C(=O)CCc2cc3n(n2)CCN(Cc2nccn2C)C3)CC1 | -24 | 2.41
65 | O=C(Cc1cccs1)N[C@H](c1cccs1)C1CCOCC1 | -8 | 1.04
66 | Cc1nc2c(c(NC[C@H]3CCCO3)n1)CCC2 | -14 | 1.48
67 | N[C@H]1CC12CCC(NC(=O)Cc1coc3c(F)c(F)ccc13)CC2 (stereo partly specified) | 0 | -0.09
68 | CC(=O)Nc1ccc2nc(CN3CCC[C@H](N4CCc5ccccc5C4)C3)ccc2c1 | 1 | -0.14
69 | COCCC1(NC(=O)C(O)C(O)c2nc3ccccc3s2)CCC1 (stereo unspecified) | 2 | -0.31
70 | O=C(c1cn(CCN2CCOCC2)nn1)N1CCc2ccccc2C1 | -6 | 1.06
71 | O=C(N1CCOCC1)N1CCn2nc(C3CC3)cc2C1 | 17 | -2.2
72 | COc1cc(NC(=O)C2CCN(c3c(C)n(-c4ccccc4)c(=O)n(C)c3=O)CC2)cc(OC)c1 | -6 | 1.2
73 | Fc1cc(OCCN2CC[C@@]3(CCCOC3)C2)ccc1Cl | -5 | 0.86
74 | COc1ccc(CNC(=O)C[C@H]2c3ncccc3C(=O)N2c2ccccc2)c(OC)c1 | -9 | 1.77
75 | CC(=O)Nc1c2n(c3ccccc13)C[C@@](C)(C(=O)NC1CCCC1)N(C1CCC(C)CC1)C2=O (stereo partly specified) | -1 | 0.13
76 | CC(C)NC(=O)[C@H](C)Oc1ccccc1C(C)C | 4 | -0.4
77 | Cc1nc([C@H](C)NC(=O)c2cn3cccc(C)c3n2)n[nH]1 | -5 | 0.91
78 | Cc1cccc(C(=O)N2[C@H](C(=O)NCc3ccccc3)COC23CCN(C(=O)c2ccc(F)cc2)CC3)c1 | -5 | 0.81
79 | COc1ccc(OCc2nc(-c3ccoc3)no2)cc1F | 5 | -0.59
80 | C[C@H]1CCCN(C(=O)c2nc(-c3cnccn3)no2)C1 | -19 | 2.77
81 | Cc1ccc(C(=O)N2CCN(c3cc(-n4cnc(C)c4C)nc(C)n3)CC2)cc1 | -26 | 2.27
82 | COCCC1(c2noc([C@H]3CCN(CC(F)(F)F)C3)n2)CCC1 | -4 | 0.61
83 | O=C(NC1CCCCC1)c1cnsn1 | -6 | 0.85
